{"source": "patent US20230086210A1", "about": "(Hoffmann-La Roche, published 2023)", "binders": {"B1": {"name": "DP47-4-1BBL (untargeted control molecule DP47 split trimeric 4-1BB ligand Fc (kih) fusion antigen binding molecule) (Fc fusion)", "chain 1": "REGPELSPDDPAGLLDLRQGMFAQLVAQNVLLIDGPLSWYSDPGLAGVSLTGGLSYKEDTKELVVAKAGVYYVFFQLELRRVVAGEGSGSVSLALHLQPLRSAAGAAALALTVDLPPASSEARNSAFGFQGRLLHLSAGQRLGVHLHTEARARHAWQLTQGATVLGLFRVTPEIPAGLGGGGSGGGGSREGPELSPDDPAGLLDLRQGMFAQLVAQNVLLIDGPLSWYSDPGLAGVSLTGGLSYKEDTKELVVAKAGVYYVFFQLELRRVVAGEGSGSVSLALHLQPLRSAAGAAALALTVDLPPASSEARNSAFGFQGRLLHLSAGQRLGVHLHTEARARHAWQLTQGATVLGLFRVTPEIPAGLGGGGSGGGGSRTVAAPSVFIFPPSDRKLKSGTASVVCLLNNFYPREAKVQWKVDNALQSGNSQESVTEQDSKDSTYSLSSTLTLSKADYEKHKVYACEVTHQGLSSPVTKSFNRGE[sequence of human IgG1 Fc with changes not given]", "chain 2": "REGPELSPDDPAGLLDLRQGMFAQLVAQNVLLIDGPLSWYSDPGLAGVSLTGGLSYKEDTKELVVAKAGVYYVFFQLELRRVVAGEGSGSVSLALHLQPLRSAAGAAALALTVDLPPASSEARNSAFGFQGRLLHLSAGQRLGVHLHTEARARHAWQLTQGATVLGLFRVTPEIPAGLGGGGSGGGGSASTKGPSVFPLAPSSKSTSGGTAALGCLVEDYFPEPVTVSWNSGALTSGVHTFPAVLQSSGLYSLSSVVTVPSSSLGTQTYICNVNHKPSNTKVDEKVEPKSC", "heavy": "[sequence of about 100 residues not given]GSGFDYWGQGTLVTVSSASTKGPSVFPLAPSSKSTSGGTAALGCLVKDYFPEPVTVSWNSGALTSGVHTFPAVLQSSGLYSLSSVVTVPSSSLGTQTYICNVNHKPSNTKVDKKVEPKSCDKTHTCPPCPAPEAAGGPSVFLFPPKPKDTLMISRTPEVTCVVVDVSHEDPEVKFNWYVDGVEVHNAKTKPREEQYNSTYRVVSVLTVLHQDWLNGKEYKCKVSNKALGAPIEKTISKAKGQPREPQVCTLPPSRDELTKNQVSLSCAVKGFYPSDIAVEWESNGQPENNYKTTPPVLDSDGSFFLVSKLTVDKSRWQQGNVFSCSVMHEALHNHYTQKSLSLSP", "light": "[sequence of about 100 residues not given][sequence of about 100 residues not given]", "notes": "Non-PD-L1-targeted control with the same split trimeric 4-1BBL; also called untargeted control DP47-4-1BBL"}}, "key": {"[1]": {"target": "human 4-1BB on Jurkat-hu4-1BB-NFκB-luc2 reporter cells (human, UniProt Q07011 24-255)", "sequence (Q07011 24-255)": "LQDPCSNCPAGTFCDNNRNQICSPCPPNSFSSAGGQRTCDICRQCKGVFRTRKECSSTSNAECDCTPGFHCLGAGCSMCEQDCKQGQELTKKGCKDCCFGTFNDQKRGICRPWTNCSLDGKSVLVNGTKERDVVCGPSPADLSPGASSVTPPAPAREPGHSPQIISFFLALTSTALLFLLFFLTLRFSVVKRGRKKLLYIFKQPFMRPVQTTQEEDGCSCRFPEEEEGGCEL", "assay": "cell-based or functional assay", "parameters": "unit not given beside the values"}, "[2]": {"target": "T1, human PD-L1 on MKN45-huPD-L1 cells (human, UniProt Q9NZQ7)", "T1 construct": "The entry is the complete precursor; also called MKN45-PD-L1; human PD-L1-expressing MKN45 cells", "T1 sequence (Q9NZQ7 19-290 limits assumed)": "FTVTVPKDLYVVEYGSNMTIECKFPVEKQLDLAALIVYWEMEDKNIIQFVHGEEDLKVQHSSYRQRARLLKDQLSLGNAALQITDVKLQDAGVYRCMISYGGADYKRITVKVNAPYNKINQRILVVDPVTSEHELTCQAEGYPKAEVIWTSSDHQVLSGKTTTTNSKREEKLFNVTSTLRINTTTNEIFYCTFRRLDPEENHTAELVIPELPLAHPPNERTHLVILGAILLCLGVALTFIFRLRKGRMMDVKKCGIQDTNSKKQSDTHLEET", "assay": "flow cytometry on MKN45-huPD-L1 cells, area under the binding curve", "parameters": "unit not given beside the values"}}, "data": [{"binder": "B1", "values": [{"measurement": "AUC of NFκB-activation-induced Luciferase activity curve", "setting": "[1]", "value": 1850}, {"measurement": "AUC", "setting": "[2]", "value": 387}]}]}
